From PMC5602671, “Role of the P2 residue of human alpha 1-antitrypsin in determining target protease specificity” (PLoS ONE, 2017) come the findings set out here.

Sequences and labels used below:
T1: porcine pancreatic elastase (porcine, UniProt P00772 27-266)
T1 construct: porcine pancreatic elastase, active enzyme as bought; also called PPE; source: bought: Merck
T1 sequence (looked up): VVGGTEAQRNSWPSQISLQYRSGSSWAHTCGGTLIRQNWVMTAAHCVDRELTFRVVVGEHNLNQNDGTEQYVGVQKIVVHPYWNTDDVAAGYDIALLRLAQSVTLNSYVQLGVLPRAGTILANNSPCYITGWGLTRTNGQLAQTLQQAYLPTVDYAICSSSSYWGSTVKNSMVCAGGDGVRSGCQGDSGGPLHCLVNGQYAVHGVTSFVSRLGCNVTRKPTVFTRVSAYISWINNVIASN

B1: human alpha 1-antitrypsin P357A (natural protein)
chain: not shown
notes: Secreted from CHO-K1 cells; source: CHO-K1, transiently transfected, secreted; purified (Q-Sepharose FF, A1AT Select)
B2: human alpha 1-antitrypsin P357L (natural protein)
chain: not shown
notes: as for B1
B3: human alpha 1-antitrypsin P357K (natural protein)
chain: not shown
notes: as for B1
B4: human alpha 1-antitrypsin P357N (natural protein)
chain: not shown
notes: as for B1
B5: human alpha 1-antitrypsin P357S (natural protein)
chain: not shown
notes: as for B1
B6: human alpha 1-antitrypsin P357W (natural protein)
chain: not shown
notes: as for B1

The test deals with T1, porcine pancreatic elastase. Kind of test: SDS-resistant complex formation on SDS-PAGE; A1AT mixed with PPE at molar ratios 1/4, 1/2, 1/1, 2/1 and 4/1, 10 min at 25°C, 20 mM Tris·HCl, 5 mM CaCl2, 0.01% Tween 80, pH 8.0; heated in reducing SDS buffer, 10% gel, Coomassie, densitometry (percent given for the 2:1 ratio). Conditions: both partners purified.
On to B1, for which the “percent of A1AT in complex with PPE (2:1 molar ratio)” value turned out to be 54%.
Then B2, with 21%; and B3, with 44%; and B4, with 9%.
Then B5, with 35%; and B6, with 17%.
